Data reported in a compilation of properties of binary mixtures (doi:10.1021/je9900225).
The densities may have been worked out from excess volumes.

Test: xn = mol fraction of the nth substance listed
Settings: 100 kPa

COCCO + CCOCCOCC
x1 = 1
Settings	mass density [kg/m3]
298.15 K	960.2
308.15 K	951.5

CCOCCOCC + COCCOCCOCCO
mass density [kg/m3]
Settings	298.15 K	308.15 K
x2 = 0	–	827.6
x2 = 0.0126	839.3	830.7
x2 = 0.0328	844.3	835.6
x2 = 0.052	849	–
x2 = 0.0807	855.9	847.2
x2 = 0.1339	868.5	859.8
x2 = 0.1806	879.4	870.6
x2 = 0.2394	892.8	884
x2 = 0.2918	904.5	895.7
x2 = 0.342	915.5	906.7
x2 = 0.385	924.8	916
x2 = 0.4103	930.1	–
x2 = 0.4604	940.7	931.9
x2 = 0.5091	950.8	941.9
x2 = 0.5505	959.2	950.4
x2 = 0.5978	968.7	959.8
x2 = 0.6522	979.4	970.6
x2 = 0.7117	990.9	982.1
x2 = 0.7976	1007	998.2
x2 = 0.8577	1018	1009.3
x2 = 0.9256	1030.1	1021.4
x2 = 0.9633	1037.1	1028.3

COCCOCCO + CCOCCOCC
x1 = 1
Settings	mass density [kg/m3]
298.15 K	1016.4
308.15 K	1007.6

CCOCCOCC + COCCO
mass density [kg/m3]
Settings	298.15 K	308.15 K
x1 = 0.0157	957	948.3
x2 = 0	836.2	827.6
x2 = 0.0142	837.3	828.7
x2 = 0.0354	–	830.3
x2 = 0.0658	841.3	832.8
x2 = 0.0821	842.6	834.1
x2 = 0.1085	844.8	836.2
x2 = 0.1503	848.3	839.7
x2 = 0.2016	852.8	844.2
x2 = 0.28	–	851.3
x2 = 0.3202	863.9	855.2
x2 = 0.3604	867.9	859.2
x2 = 0.4322	875.5	866.7
x2 = 0.5152	884.9	876.1
x2 = 0.5455	888.5	879.7
x2 = 0.5957	–	885.9
x2 = 0.6464	–	892.6
x2 = 0.7119	910.5	901.7
x2 = 0.7472	–	906.9
x2 = 0.8023	924.3	915.5
x2 = 0.8705	935.7	927
x2 = 0.9222	945	936.3
x2 = 0.9592	950.7	942

CCOCCOCC + COCCOCCO
mass density [kg/m3]
Settings	298.15 K	308.15 K
x1 = 0.0146	–	1004.7
x2 = 0	836.2	827.6
x2 = 0.0162	–	830.3
x2 = 0.0416	843.1	834.4
x2 = 0.0613	–	837.7
x2 = 0.0967	852.2	843.6
x2 = 0.1691	–	855.6
x2 = 0.2291	874.5	–
x2 = 0.2741	882.2	–
x2 = 0.3082	888	879.3
x2 = 0.344	894.2	885.5
x2 = 0.4006	904.1	895.3
x2 = 0.4593	914.5	905.7
x2 = 0.5082	923.2	914.4
x2 = 0.5635	933.2	924.4
x2 = 0.6145	–	933.7
x2 = 0.6552	950.1	943.1
x2 = 0.6969	957.9	949
x2 = 0.8075	978.8	970
x2 = 0.8567	988.3	979.5
x2 = 0.9074	998.2	–
x2 = 0.9515	1006.8	998

COCCOCCOCCO + CCOCCOCC
Settings	mass density [kg/m3]
308.15 K, x1 = 1	1034.3
